# From PubChem BioAssay AID504339 (National Center for Advancing Translational Sciences (NCATS), 2011)
# The campaign covered roughly 390,000 compounds. About 17,000 (4.4%) were called active. The shares of active, inactive and inconclusive entries below differ from those in the screen. Calls come from the whole dose curve; as a rule, active = well fitted inhibition curve with a large enough effect; inconclusive = small, poorly fitted or top-dose-only effect; inactive = no such curve, though single readings can be large or run the other way. Potencies beside an inconclusive call are fits to weak or partial responses and may not hold up.
# Target: Lysine-specific demethylase 4A (Homo sapiens) (UniProt O75164)
# Assay: qHTS Assay for Inhibitors of JMJD2A-Tudor Domain; note: nearly all actives have a fitted effect of over 50% in size
# Settings: AlphaScreen JMJD2A-Tudor / H3K4me3 peptide binding; activity change, negative = inhibition: at 114 µM (top of the series)
# % is set by controls: 0 for no effect and ±100 for the full control effect; potency is the fitted concentration of half-maximal effect; tags give direction and shape of the fitted curve.
# UniProt O75164, sequence (O75164 whole entry, looked up, the tested form may be a part): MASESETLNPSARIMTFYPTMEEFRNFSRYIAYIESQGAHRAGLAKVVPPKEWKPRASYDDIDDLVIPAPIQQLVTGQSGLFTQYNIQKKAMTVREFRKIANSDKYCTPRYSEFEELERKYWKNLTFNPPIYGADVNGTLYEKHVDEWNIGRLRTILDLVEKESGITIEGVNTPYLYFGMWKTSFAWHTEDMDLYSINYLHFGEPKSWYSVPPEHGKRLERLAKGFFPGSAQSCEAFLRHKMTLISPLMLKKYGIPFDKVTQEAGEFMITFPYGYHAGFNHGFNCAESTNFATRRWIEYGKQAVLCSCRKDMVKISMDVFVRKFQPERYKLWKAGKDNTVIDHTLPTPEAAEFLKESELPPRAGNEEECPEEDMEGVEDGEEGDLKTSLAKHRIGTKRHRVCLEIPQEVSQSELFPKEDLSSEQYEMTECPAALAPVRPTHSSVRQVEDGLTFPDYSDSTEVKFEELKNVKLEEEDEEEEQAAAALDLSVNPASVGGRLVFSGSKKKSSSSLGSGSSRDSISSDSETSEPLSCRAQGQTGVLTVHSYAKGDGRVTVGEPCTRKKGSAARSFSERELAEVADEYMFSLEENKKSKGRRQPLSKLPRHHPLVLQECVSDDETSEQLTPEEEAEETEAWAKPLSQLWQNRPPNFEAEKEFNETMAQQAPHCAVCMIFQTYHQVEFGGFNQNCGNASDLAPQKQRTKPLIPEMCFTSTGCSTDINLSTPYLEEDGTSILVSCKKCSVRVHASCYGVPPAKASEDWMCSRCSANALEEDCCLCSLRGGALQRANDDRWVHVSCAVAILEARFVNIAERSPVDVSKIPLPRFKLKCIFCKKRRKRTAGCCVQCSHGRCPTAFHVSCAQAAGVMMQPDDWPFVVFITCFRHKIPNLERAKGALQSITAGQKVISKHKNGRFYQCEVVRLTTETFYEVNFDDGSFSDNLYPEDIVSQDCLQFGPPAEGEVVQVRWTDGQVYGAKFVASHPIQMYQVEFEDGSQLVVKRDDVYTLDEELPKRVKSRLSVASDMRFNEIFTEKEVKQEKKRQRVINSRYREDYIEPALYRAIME
Structure (SMILES),Potency,"activity change, negative = inhibition"
Cc1cnc(C(=O)OCc2nc3ccsc3c(=O)[nH]2)cn1,active: 56.2 µM,–
FC(F)(F)Oc1ccc(Nc2nc(N3CCOCC3)nc(N3CCOCC3)n2)cc1,active: 17.8 µM,–
CSC1=NC2(C[C@H]2c2ccccc2)C(=O)N1C (some centres not stated),–,inactive: -10.1%
Cc1ccc2c(c1)c1nnc(SCC(=O)Nc3ccc(N(C)C)cc3)nc1n2CC(=O)O,"inconclusive: 44.7 µM [inhibitor, partial curve]",–
CC(C)(C)c1ccc(C(=O)N2CC(=O)Nc3ccc(F)cc3C2c2ccc(F)cc2)cc1 (configuration not stated),–,inactive: -31.4%
CN1CCN(CCC(=O)N/N=C/C=C2\N(C)c3ccccc3C2(C)C)CC1,–,inactive: -34.9%
CCOC(=O)N1CCN(C(=O)c2c(-c3ccccc3Cl)noc2C)CC1,"inconclusive: 1 µM [inhibitor, full curve]",–
CS(=O)(=O)Nc1ccccc1NS(C)(=O)=O,"inconclusive: 39.8 µM [inhibitor, partial curve, poor fit]",–
COc1ccc(C2=NN(C(=O)CSC3=NN4CCCC(=O)N=C4S3)C(c3cccc(OC)c3OC)C2)cc1 (configuration not stated),"inconclusive: 63.1 µM [inhibitor, partial curve, poor fit]",–
COc1cnc(-c2ccccn2)nc1N(C)c1ccccc1,active: 25.1 µM,–
CCOC(=O)c1c(C)[nH]c(C(C)=NNC(=O)c2cccs2)c1C,–,inactive: -15.3%
Cc1cccc(NC(=S)NCc2ccccc2)c1C,–,inactive: -20.4%
CCC(CC)c1nnc(NC(=O)c2cc(C(=O)OC)cc([N+](=O)[O-])c2)s1,–,inactive: -22.4%
CCOc1ccc(/C=C2/SC(=S)N(C(C(=O)O)c3ccccc3)C2=O)cc1OCC (configuration not stated),"inconclusive: 28.2 µM [inhibitor, partial curve]",–
COC(=O)C1=C(C)N(Cc2ccccc2)C(=S)N[C@H]1c1ccc(Br)cc1,"inconclusive: 70.8 µM [inhibitor, single point]",–
CN(Cc1ccccc1)C(=O)Cn1ncc2c3ccccc3n(Cc3cccc(Cl)c3)c2c1=O,"inconclusive: 50.1 µM [inhibitor, partial curve]",–
Cc1ccc2sc(NNC(=O)C3=COCCO3)nc2c1C,"inconclusive: 44.7 µM [inhibitor, partial curve]",–
COc1ccc(NC(=O)CSc2ccc(-c3cccnc3)nn2)cc1,–,inactive: -9.56%
O=S(=O)(Nc1cccnc1)c1ccc(C2CCCCC2)cc1,"inconclusive: 79.4 µM [inhibitor, partial curve]",–
Cc1cccc(/C=C2/Sc3ccc(C(=O)NCCN4CCCC4)cc3NC2=O)c1,"inconclusive: 28.2 µM [inhibitor, partial curve]",–
O=C1CC(Nc2ccc(N3CCOCC3)cc2)C(=O)N1CCc1ccccc1 (configuration not stated),–,inactive: -19.2%
Cc1ccc2c(c1)c1nnc(SCC(=O)Nc3cccc(Cl)c3C)nc1n2CC(=O)O,"inconclusive: 50.1 µM [inhibitor, partial curve]",–
COc1ccc(S(=O)(=O)N2CCCCC2)cc1NC(=O)c1cncc(Br)c1,–,inactive: -12.5%
COc1ccc(C(=O)Nc2ccc(NC(=O)c3cccs3)cc2)cc1Cl,"inconclusive: 12.6 µM [inhibitor, partial curve, poor fit]",–

Structure (SMILES),Potency,"activity change, negative = inhibition"
CCc1nnc(NC(=O)CSCc2cc(=O)n3nc(C(C)C)sc3n2)s1,–,inactive: 10.2%
CCOc1cc(S(=O)(=O)N(CC)CC)ccc1Cl,–,inactive: 32.4%
Cc1ccccc1N(CC(=O)NCc1ccc2c(c1)OCO2)C(=O)C1CSC(=O)C1 (configuration not stated),–,inactive: 3.16%
C=CCn1c(=S)[nH]c2sccc2c1=O,"inconclusive: 89.1 µM [inhibitor, single point]",–
CS(=O)(=O)N1CCc2cc(S(=O)(=O)Nc3ccc4oc5c(c4c3)CCCC5)ccc21,"inconclusive: 17.8 µM [inhibitor, partial curve]",–
CCn1ncc(Br)c1C(=O)Nc1cc(C)on1,–,inactive: -11.2%
COC(=O)c1sc2cc(=O)n(-c3cccc(C(F)(F)F)c3)nc2c1O,"inconclusive: 25.1 µM [inhibitor, full curve]",–
Cc1nc(NC(=O)CN2CCN(c3ccccc3F)CC2)sc1C(=O)N(C)C,–,inactive: -7.14%
COc1ccc(-c2noc(-c3ccc4c(c3)OCO4)n2)cc1,–,inactive: -13.6%
COc1ccc(C2C(C(=O)c3ccco3)=C(O)C(=O)N2CC2CCCO2)c(OC)c1 (configuration not stated),"inconclusive: 31.6 µM [inhibitor, partial curve]",–
O=C(O)COc1ccc(-c2nnn(CC(=O)O)n2)cc1,"inconclusive: 89.1 µM [inhibitor, partial curve]",–
COc1ccc(CCn2c(C)cc(C(=O)CN3C(=O)C(=O)N(C4CCCC4)C3=O)c2C)cc1OC,"inconclusive: 22.4 µM [inhibitor, full curve]",–
Cc1ccc2nc(SCc3nc(-c4ccccc4C)no3)[nH]c2c1,–,inactive: 2.99%
Cc1ccc(S(=O)(=O)CC(=O)N2CC(C)OC(C)C2)cc1 (configuration not stated),"inconclusive: 3.98 µM [inhibitor, single point]",–
COc1cc(OC)c2c(C)cc(=O)oc2c1C(CCN1CCN(c2ccccc2)CC1)c1ccc2c(c1)OCO2 (configuration not stated),active: 28.2 µM,–
CCc1ccccc1S(=O)(=O)Cc1ccc(C(=O)NCCc2ccccc2)o1,"inconclusive: 15.8 µM [inhibitor, full curve, poor fit]",–
CCOc1cc(N2CCOCC2)c(OCC)cc1NC(=O)COC(=O)CCc1c[nH]c2ccccc12,"inconclusive: 50.1 µM [inhibitor, partial curve]",–
Cc1nn(CC(=O)NCCc2ccc(Cl)cc2)c(=O)c2cccn12,"inconclusive: 25.1 µM [inhibitor, single point]",–
Cc1ccc(C)c(N2CCN(C(=O)c3cccn3-c3nnc(N4CCCCC4)s3)CC2)c1,"inconclusive: 56.2 µM [inhibitor, partial curve]",–
O=C1CC2CCCN2C=C1I (configuration not stated),active: 17.8 µM,–
O=C(N/N=C/c1coc2ccc(Cl)cc2c1=O)c1ccc(O)cc1,"inconclusive: 50.1 µM [inhibitor, partial curve, poor fit]",–
COc1ccccc1CC(=O)c1ccc(OCc2ccccc2)cc1,–,inactive: 95%
Cc1ccc2[nH]c3c(N4CCc5ccccc5C4)ncnc3c2c1,"inconclusive: 50.1 µM [inhibitor, partial curve]",–
Cc1ccc(OCC(=O)OC2CCCN(C)C2)cc1 (configuration not stated),"inconclusive: 28.2 µM [inhibitor, single point]",–

Structure (SMILES),Potency,"activity change, negative = inhibition"
Cc1ccc(NC(=O)CC2SC(=NC3CCCCC3)NC2=O)cc1 (configuration not stated),–,inactive: -12.4% [at 57.1 µM]
C(=N\NC1=Nc2cccc3cccc1c23)/c1cccnc1,"inconclusive: 44.7 µM [inhibitor, partial curve]",–
Cc1ccc(NS(=O)(=O)c2ccc(Br)s2)nc1,–,inactive: -19.7%
CCn1c(SCC(=O)c2ccccc2)nc2sc3c(c2c1=O)CCN(C)C3,"inconclusive: 100 µM [inhibitor, partial curve, poor fit]",–
CCOC(=O)C1CCN(C(=O)c2ccc3c(c2)NC(=O)/C(=C\c2cccc(C)c2)S3)CC1,"inconclusive: 22.4 µM [inhibitor, full curve, poor fit]",–
COc1ccc(/C(C)=N/Nc2ccc(C(=O)O)cc2)c(OC)c1,–,inactive: -15.2%
Cc1ccc2c(c1)c1c(n2CCc2ccc(C)nc2)CCN(C)C1,–,inactive: -10.7%
CC1=N/C(=C/c2ccc([N+](=O)[O-])cc2)C(=O)N1c1ccc(Cl)cc1Cl,"inconclusive: 11.2 µM [inhibitor, full curve]",–
COc1ccccc1C(=O)NCC(c1ccco1)N1CCc2ccccc21 (configuration not stated),"inconclusive: 44.7 µM [inhibitor, partial curve]",–
Cc1nonc1NC(=O)OC1CCCCC1,–,inactive: -13.4%
COc1cccc(CNC(=O)[C@@H](C)N2C(=O)N3CCc4c([nH]c5ccc(OC)cc45)C3(C)C2=O)c1 (some centres not stated),"inconclusive: 100 µM [inhibitor, partial curve]",–
C[C@@]12C(=O)Nc3ccc(Cl)cc3C(=O)N1[C@H]1c3ccccc3OC[C@@H]1[C@@H]2c1ccccc1,"inconclusive: 70.8 µM [inhibitor, partial curve, poor fit]",–
CCc1nc2ccc(C(=O)NCCc3ccc(OC)c(OC)c3)cc2nc1CC,inactive,–
CCn1nc(C)c(CN2CCc3c([nH]c4ccccc34)C2c2ccc(F)c(OC)c2)c1C (configuration not stated),"inconclusive: 31.6 µM [inhibitor, partial curve]",–
Nc1ncnc2c1ncn2C1CCCC1,"inconclusive: 79.4 µM [inhibitor, single point]",–
CC1=NN(c2ccccc2)C(=O)C1N=Nc1ccccc1 (configuration not stated),"inconclusive: 8.91 µM [inhibitor, full curve]",–
N#Cc1c(N)oc(-c2cccs2)c1-c1cccs1,"inconclusive: 89.1 µM [inhibitor, single point]",–
CC(Oc1cc2oc(=O)c3c(c2cc1Cl)CCCC3)C(=O)NCc1ccccn1 (configuration not stated),–,inactive: -32.1%
Cc1ccc(CCN2CC(C(=O)NCCCN3CCC(C)CC3)CC2=O)cc1 (configuration not stated),"inconclusive: 14.1 µM [inhibitor, full curve, poor fit]",–
Cc1cc(-c2csc(N)n2)c(C)n1Cc1ccccc1,"inconclusive: 15.8 µM [inhibitor, partial curve]",–
COc1ccc(/C=C/C=C2\N=C(SC)SC2=O)cc1,"inconclusive: 28.2 µM [inhibitor, partial curve]",–
COc1cccc(C(=O)Nc2c3c(nn2-c2ccc(C)cc2C)CS(=O)(=O)C3)c1OC,"inconclusive: 50.1 µM [inhibitor, partial curve, poor fit]",–
COc1ccc(C(=O)Nc2nc3cc(OC)c(OC)cc3c(=O)[nH]2)cc1,"inconclusive: 79.4 µM [inhibitor, partial curve]",–
CC(C)Nc1oc(Cc2cccc3ccccc23)nc1C#N,"inconclusive: 56.2 µM [inhibitor, partial curve, poor fit]",–
